# Measured values taken from PubChem BioAssay AID1508642 (National Center for Advancing Translational Sciences (NCATS), 2021).
# The campaign covered roughly 43,000 compounds. About 200 (0.47%) were called active. Roughly 12% stayed inconclusive and do not appear here. The call rests on the fitted dose curve; in most records, active means well fitted cell-killing curve with a large enough effect; inconclusive means small, poorly fitted or top-dose-only effect, or effect the other way; inactive means flat fitted curve, though single readings scatter. This is one part of the list.
# Test: Cell viability qHTS assay in S16 Pmp22-F2sN cells; further: nearly all actives have a fitted effect of over 65% in size
# Details: S16 Pmp22-F2sN Schwann cells (luciferase reporters placed in the Pmp22 gene) viability, CellTiter-Glo, 24 h; series mostly up to 57.5 µM; activity change, negative = cytotoxicity: at the top concentration
# How it was run: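 CellTiter-Glo counter-screen, qHTS, 1536-well. Cells: S16(c9) Pmp22-F2sN, 500-1,000/well in DMEM + 10% FBS. Cpd 23 nL pin transfer, 24 h, 37C/5% CO2. Read: luminescence, CCD imager.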
# On the % scale 0 is the no-effect control and ±100 the full control effect.
row,SMILES,"activity change, negative = cytotoxicity"
1,Cc1cccc(N2CCN(C(=O)c3cccc(-n4c(C)nc5cccnc54)c3)CC2C)c1 (configuration not stated),inactive: -19.7%
2,Cc1c(C(=O)Nc2ccccc2Cl)oc2ccc(S(=O)(=O)N3CCCCCC3)cc12,inactive: -0.0524%
3,O=C1CC(=O)Nc2cc(S(=O)(=O)Nc3cccc(Br)c3)ccc2N1,inactive: -1.8%
4,COC(=O)c1cc2sc(Cl)cc2n1Cc1nc(-c2ccccc2F)oc1C,inactive: -5.2%
5,Cc1ccc(CCNC(=O)c2ccc(CNS(=O)(=O)c3ccc(F)cc3)cc2)cc1,inactive: 8.45%
6,COc1ccc(OC)c(CCNc2ncnc3onc(C)c23)c1,inactive: -17.2%
7,Cc1cc(C)c2c(n1)SCC(=O)N2CC(=O)Nc1c(C)cccc1C,inactive: 9.96%
8,Cc1cc(C)cc(NC(=O)Nc2c[nH]c(=O)[nH]c2=O)c1,inactive: 1.49%
9,COCCN1C(=O)c2oc3ccc(C)cc3c(=O)c2C1c1ccc(C(=O)OC)cc1 (configuration not stated),inactive: 6.17%
10,CSc1ncc(C(=O)NCc2cccc(Br)c2)c(-c2ccccc2)n1,inactive: 0.276%
11,O=C(Cn1c(=O)c2sccc2n(CC(=O)Nc2ccc(Cl)cc2Cl)c1=O)NCCc1ccccc1,inactive: -2.16%
12,Cc1ccc(NC(=O)N2CCc3c([nH]c4ccccc34)C2c2ccccc2F)c(Cl)c1 (configuration not stated),inactive: -6.32%
13,CCCN1Cc2cccc(C(=O)Nc3ccc(OC)cc3OC)c2C1=O,inactive: 18.2%
14,COc1cccc(C(=O)c2cn(CC(=O)Nc3cccc(Cl)c3C)c3nc(C)ccc3c2=O)c1,inactive: 8.59%
15,COc1ccc(C(C(=O)NCc2ccccc2)N(C(=O)Cn2nnc3ccccc32)c2ccc(OC)cc2)cc1 (configuration not stated),inactive: 1.65%
16,COc1ccc(CNS(=O)(=O)c2ccc3c(c2)C(C)(C)C(=O)N3C)cc1OC,inactive: -3.59%
17,Cc1ccc(C(C)C)c(OCC(=O)Nc2ccc(-c3nc4ncccc4o3)cc2C)c1,inactive: -4.2%
18,O=C(NCc1ccccc1F)C(=O)NCC(c1ccco1)S(=O)(=O)c1ccccc1 (configuration not stated),inactive: -3.79%
19,Cc1ccc(CC(=O)NCc2nc(-c3cccc(C)c3)no2)cc1,inactive: 15.2%
20,Cc1ccc(N(C)C(=O)c2noc3c2CCCCC3)cc1C,inactive: 3.05%
21,CN(C)c1ccc(-c2nc3ccccn3c2Nc2ccc3c(c2)OCCO3)cc1,inactive: -19%
22,Cc1cccc(N2CCN(C(=O)c3c4c(nc5ccccc35)C(=O)N(C3CCCCC3)C4)CC2)c1C,inactive: 18.3%
23,COc1ccc(OC)c(NC(=O)c2cc3c(=O)n4cccc(C)c4nc3n2C)c1,inactive: 9.63%
24,COc1cc(OC)c(NC(=O)C(C)n2nc(-c3ccc(C)c(C)c3)ccc2=O)cc1Cl (configuration not stated),inactive: -28.9%

row,SMILES,"activity change, negative = cytotoxicity"
1,COc1cccc(NC(=O)CSc2nnc(NC(=O)NC3CCCCC3)s2)c1,inactive: 5.14%
2,Cc1cccc(C)c1OCc1cc(=O)n2ccsc2n1,inactive: -2.56%
3,CCCOc1ccccc1C(=O)Nc1nc2c(s1)CCCC2,inactive: -5.14%
4,CN(Cc1ccccc1)C(=O)c1ccc2c(c1)N(Cc1ccc(Cl)cc1)C(=O)c1ccccc1S2=O (configuration not stated),inactive: -6.7%
5,Cc1oc(-c2ccc(Cl)cc2)nc1CN1CCCC(C(=O)NCc2ccc(Cl)cc2)C1 (configuration not stated),inactive: 16%
6,CCOC(=O)c1cnc2c(C)cc(C)cc2c1Nc1ccc(N2CCOCC2)cc1,inactive: -24.3%
7,CCOC(=O)N1CCN(C(=O)c2cnn(-c3cccc(C)c3)c2-n2cccc2)CC1,inactive: 2.67%
8,COc1cccc(NS(=O)(=O)c2ccc3[nH]cc(C(=O)N(C)Cc4ccco4)c(=O)c3c2)c1,inactive: 5.4%
9,Cn1c(=O)c2c(c3ccccc31)OC(=O)CC2c1ccccc1 (configuration not stated),inactive: 10.3%
10,COc1ccc(NC(=O)c2ccc3c(=O)n4nc(Nc5ccccc5C)sc4nc3c2)cc1,inactive: 11.3%
11,O=c1c2ccccc2n2c(-c3cccc(F)c3)nnc2n1Cc1ccccc1,inactive: -14.7%
12,CCOc1ccc(N(CC)S(=O)(=O)N2CCCC(C(=O)NCc3ccc(SC)cc3)C2)cc1 (configuration not stated),inactive: -27.6%
13,COc1cccc(CNC(=O)NCc2noc3ccc(C)cc23)c1,inactive: 8.88%
14,COc1ccc(N2CCN(C(=O)CCS(=O)(=O)c3cc(Br)cc4c3N(C(=O)C3CC3)CC4)CC2)cc1,inactive: -1.46%
15,COc1ccc(NC(=O)CN2C(=O)COc3ccc(S(=O)(=O)N4CCOCC4)cc32)cc1Cl,inactive: 9.08%
16,COc1ccc(NC(=O)Nc2nnc(N3CCCCCC3)s2)c(OC)c1,inactive: 4.82%
17,COc1ccc(C(=O)N2CCC(c3c[nH]c4ccccc34)(c3c[nH]c4ccccc34)CC2)cc1,inactive: -20.2%
18,Cc1ccc(C)c(CN2C(=O)c3ccccc3S(=O)c3ccc(C(=O)NCCc4ccc(Cl)cc4)cc32)c1 (configuration not stated),inactive: 8.97%
19,COc1ccc(NC(=O)c2sc3nc(-c4cc5cccc(OC)c5oc4=O)[nH]c(=O)c3c2C)cc1,inactive: 6.82%
20,COc1ccc(NC(=O)c2cc(C3CC3)nc3c2c(C)nn3-c2ccc(C)cc2)cc1OC,inactive: 6.05%
21,CN(C)c1ccc(CNC(=O)C2CCN(S(=O)(=O)c3cn(C)cn3)CC2)cc1,inactive: -8.16%
22,COc1ccccc1CNC(=O)c1oc2c(c1C)-c1nn(Cc3ccc(Cl)cc3)cc1CC2,inactive: -4.76%
23,CCOc1ccc(Cn2c(CNS(=O)(=O)c3ccc([N+](=O)[O-])cc3)nc3cccnc32)cc1,inactive: -1.27%
